Inconclusive results, whose numbers are uncertain, are shown with a selection of clear calls. Potencies of inconclusive entries are left out as doubtful fits. The source made the active and inactive calls. Calls come from the whole dose curve; as a rule, active = well fitted activation curve with a large enough effect; inconclusive = small, poorly fitted or top-dose-only effect; inactive = no such curve, though single readings can be large or run the other way.
Test: qHTS Assay for Agonists of the Relaxin Receptor RXFP1: V1B Hit Validation;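 note: counter-screen in HEK293 cells expressing V1B rather than RXFP1 for selectivity; nearly all actives have a fitted effect of over 65% in size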;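 for activation: cAMP accumulation with PDE4 inhibitor Ro 20-1724 present during compound exposure; 0% = buffer alone basal and 100% = 29 nM porcine relaxin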
Conditions: HEK293 V1B cells, cAMP TR-FRET, 30 min; series mostly up to 115 µM; activation: at the top concentration
Outline: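 Cells: HEK293, 2000/well. Cpd 30 min, 37C, 5% CO2, + PDE4 inhibitor Ro 20174. Lyse, HTRF cAMP, 30 min RT. Norm: buffer = 0%, porcine relaxin 29 nM = 100%.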
Potency is the fitted concentration of half-maximal effect; tags give direction and shape of the fitted curve.

Row | Compound | Potency | activation
1 | Cn1c(=O)c2c(ncn2CC(=O)N/N=C/c2cn[nH]c2-c2ccc(F)cc2)n(C)c1=O | active: 21.8 µM | 
2 | CCCCn1c(=O)[nH]c(=O)c2c1nc(Cn1ncc(Cl)c(Cl)c1=O)n2CCC | inconclusive [activator, partial curve] | 
3 | N#CCCSc1ncnc2c1oc1ccccc12 | active: 19.4 µM | 
4 | O=C(O)CCSc1ccc2ccccc2n1 | active: 6.15 µM | 
5 | O=C(O)C1Cc2ccccc2CN1C(=O)CSc1nnc2ccccn12 (stereo not drawn) | inconclusive [activator, partial curve] | 
6 | O=C(CSc1ccc2nnc(-c3ccncc3)n2n1)NCC1CCCO1 (stereo not drawn) | inconclusive [activator, partial curve] | 
7 | Cc1cccc(NC(=O)c2ccccc2NC(=O)C2CCCCC2)c1C |  | inactive: -3.76% [at 127 µM]
8 | O=C(Nc1ccccc1C(=O)Nc1ccccc1C(=O)NCc1ccco1)c1ccco1 | inactive | 
9 | O=C(Nc1ccccc1C(=O)NCc1ccco1)c1ccco1 |  | inactive: 4.18% [at 127 µM]
10 | CC(=O)Nc1cccc(NC(=O)CSc2nc3c(c(=O)n(C)c(=O)n3C)n2C)c1 | inconclusive [activator, partial curve] | 
11 | CC(C)c1ccccc1NC(=O)c1ccccc1NC(=O)C1CCCCC1 |  | inactive: 8.65% [at 127 µM]
12 | Cc1cc(=O)n2nc(N3CCCC3C(=O)Nc3ccccc3C)sc2n1 (stereo not drawn) | inconclusive [activator, partial curve] | 
13 | COc1ccc(/C=N/NC(=O)Cn2cnc3c2c(=O)n(C)c(=O)n3C)cc1 | inconclusive [activator, partial curve] | 
14 | CN(C)c1ccc(C(=S)N2CCN(S(=O)(=O)c3ccccc3)CC2)cc1 |  | inactive: 4.97%
15 | Cc1cc(C)nc(NS(=O)(=O)c2ccc(N3C(=O)c4ccccc4C3=O)cc2)n1 | active: 29.8 µM | 
16 | c1ccc(-c2nnc(-c3ccccn3)c(-c3ccccn3)n2)nc1 |  | inactive: -1.59%
17 | CCCc1nc(SCC(=O)NCC2CCCO2)c2c(=O)n(C)c(=O)n(C)c2n1 (stereo not drawn) | inconclusive [activator, partial curve] | 
18 | COC(=O)CCNC(=O)Cn1cnc2sc3c(c2c1=O)CCCC3 | inconclusive [activator, partial curve, poor fit] | 
19 | CCC(=O)Nc1ccc(NC(=O)CSc2nc3c(c(=O)n(C)c(=O)n3C)n2CC)cc1 | active: 38.9 µM | 

Row | Compound | Potency | activation
20 | COc1ccc(-n2nc(C(=O)NCC(=O)NCCCN3CCOCC3)c3ccccc3c2=O)cc1Cl | inconclusive [activator, partial curve] | 
21 | Cc1ccc(C(=O)Nc2cccc(C(F)(F)F)c2)cc1NC(=O)c1cnnc2ccccc12 |  | inactive: 4.89%
22 | COc1ccc(/C=C2/SC(=O)N(CCC(=O)Nc3ccc(C)cc3)C2=O)cc1OC |  | inactive: -74%
23 | Cn1c(=O)c2sccc2n2c(CCCC(=O)NCCc3ccccc3)nnc12 | inconclusive [activator, partial curve] | 
24 | O=C(Nc1ccccc1C(=O)NCCc1ccc(O)cc1)c1ccco1 |  | inactive: 3.88% [at 127 µM]
25 | Cc1ccc(CN(C)C(=O)c2ccc3c(c2)NC(=O)CS3)o1 |  | inactive: -30.6%
26 | CN(C)c1ccc2nc3c(=O)[nH]c(=O)nc-3n(CC(O)C(O)C(O)CO)c2c1 (stereo not drawn) | inconclusive [activator, partial curve, poor fit] | 
27 | Cc1cc(C(=O)OCC(=O)c2ccc(Br)s2)no1 | active: 21.8 µM | 
28 | O=C(Nc1ccccc1C(=O)NCCN1CCOCC1)c1ccco1 |  | inactive: 3.24% [at 127 µM]
29 | COc1ccc(CN2C(=O)c3cccnc3C2=O)cc1S(=O)(=O)N1CCCC(C)C1 (stereo not drawn) | inconclusive [activator, full curve] | 
30 | CCN1CCN(C(=O)CCc2nnc3ccc(N4CCC5(CC4)OCCO5)nn23)CC1 | inconclusive [activator, partial curve] | 
31 | COCCNC(=O)NC(=O)COC(=O)C12CC3CC(CC(NC(C)=O)(C3)C1)C2 |  | inactive: 5% [at 44.9 µM]
32 | COc1cccc(C(=O)CSc2nnc(-c3cc(OC)cc(OC)c3)o2)c1 | active: 10.9 µM | 
33 | S=c1nc[nH]c2c1[nH]c1ccc(Cl)cc12 | inconclusive [activator, full curve] | 
34 | CCOC(=O)C(CC)Sc1ccc2nnc(-c3cccnc3)n2n1 (stereo not drawn) | inconclusive [activator, partial curve] | 
35 | CCN(CC)S(=O)(=O)c1ccc2c(c1)N(CC(=O)NCc1ccccn1)C(=O)CO2 | inconclusive [activator, partial curve] | 
36 | CCn1c(=O)c2cc(C(=O)Nc3cccc(C(C)=O)c3)sc2c2ccccc21 | inconclusive [activator, partial curve, poor fit] | 
37 | NS(=O)(=O)c1cccc(NC(=O)CSc2ncnc3ccccc23)c1 | inconclusive [activator, partial curve] | 
38 | O=C(Nc1nc2ccsc2c(=O)s1)c1ccc(Cl)cc1 | inconclusive [activator, full curve] | 

— PubChem BioAssay AID492948 (National Center for Advancing Translational Sciences (NCATS), 2010)
